# The other results are listed elsewhere or left out. Further columns of the screen follow, without active or inactive calls. Most of these compounds were active or inconclusive in the main read-out, so they are no random draw. Potencies come from curve fits of mixed quality, noted in brackets.
# Test: qHTS Assay for Lipid Storage Modulators (AID 1519)
# Conditions: Drosophila S3 cells, BODIPY lipid droplet/cell ratio, laser cytometry, cells loaded with oleic acid
# How it was run: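 Cells seeded at 5,000 per well were treated with compounds over a concentration series and loaded with oleic acid (400 uM, as added). Lipid droplet fluorescence (488 nm excitation, 500-530 nm channel) was read by laser-scanning cytometry and normalized to 20 uM Triacsin C.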
# [1] = measured here: cell count channel max response
# [2] = measured here: cell number channel AC50
# [3] = measured here: lipid (BODIPY) channel AC50
# [4] = measured here: lipid channel max response
# Tags give direction and shape of the fitted curve.
SMILES,max response [1] [%],AC50 [2],AC50 [3],max response [4] [%]
O=S(=O)(c1ccccc1)N1CCC2(CC1)CN(C(c1ccccc1)c1ccccc1)C2,34.3,"11.2 µM [rising, partial curve]","14.1 µM [rising, partial curve]",46.4
CN1CCN(c2ncc3nc(-c4cccc(C#N)c4)c(=O)n(CCc4ccccc4)c3n2)CC1,-41.4,"39.8 µM [falling, single point]","39.8 µM [falling, single point]",-55.1
COC(=O)N1CCC2(CCCN(c3ncccn3)C2)CC1,32.4,"0.0224 µM [rising, full curve, poor fit]","0.0398 µM [rising, full curve]",45.2
Cc1cc(NC(=O)Nc2ccc(N(C)C)cc2)c2cc(F)cc(F)c2n1,-45.7,"1.12 µM [rising, full curve]","1 µM [rising, full curve]",-38.8
COc1ccc(CCNC[C@@H](O)c2ccc(O)cc2)cc1OC,62.5,"39.8 µM [rising, single point]","39.8 µM [rising, single point]",61.1
COc1ccc(CNc2cc(-c3cccc(NS(C)(=O)=O)c3)ncn2)c(OC)c1,35.9,"2 µM [rising, full curve, poor fit]","3.55 µM [rising, partial curve, poor fit]",44.7
Cc1nc2cnc(Oc3cccc(Cl)c3)nc2n(CCc2ccccc2)c1=O,11.6,"3.55 µM [rising, partial curve]","0.0398 µM [rising, full curve, poor fit]",21
O=c1c(-c2ccccc2)nc2cncnc2n1C1CC1,25.3,"2.82 µM [rising, full curve, poor fit]","1.12 µM [rising, partial curve, poor fit]",31.2
COc1ccc(CNc2ncnc3ccc(-c4ccccc4C#N)cc23)c(OC)c1,32.2,"3.55 µM [rising, full curve, poor fit]","3.55 µM [rising, full curve, poor fit]",39.5
CCS(=O)(=O)N1CCC[C@H]2CN3CCc4cc(OC)ccc4[C@@H]3C[C@@H]21,51.7,"7.94 µM [rising, partial curve, poor fit]","15.8 µM [rising, partial curve, poor fit]",64.6
COc1ccc(C(=O)N2CCC3(CCCN(C(=O)Nc4cccc(F)c4)C3)CC2)cc1,2.67,"0.0447 µM [rising, full curve, poor fit]","0.0355 µM [rising, full curve, poor fit]",8.18

# Reference: PubChem BioAssay (NCATS)
